In PubChem BioAssay AID1240 (Sanford-Burnham Center for Chemical Genomics, 2008):
Out of some 50,000 compounds screened, about 800 (1.6%) showed an effect of 50% or more. The list shows a part of the results.

biological target: Bcl-2-like protein 10 (Homo sapiens) (UniProt Q9HD36); assay: TR3 peptide-Bcl-B binding displacers, biochemical primary FP assay, phenotype converters (AID 1240); conditions: GST-Bcl-B / FITC-TR3 peptide fluorescence polarization; stronger effect = higher value; compound at 3.75 mg/L;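 further: 0% = Bcl-B with tracer peptide and DMSO and 100% = tracer peptide lacking Bcl-B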
Sequence of UniProt Q9HD36 (Q9HD36 whole entry, looked up): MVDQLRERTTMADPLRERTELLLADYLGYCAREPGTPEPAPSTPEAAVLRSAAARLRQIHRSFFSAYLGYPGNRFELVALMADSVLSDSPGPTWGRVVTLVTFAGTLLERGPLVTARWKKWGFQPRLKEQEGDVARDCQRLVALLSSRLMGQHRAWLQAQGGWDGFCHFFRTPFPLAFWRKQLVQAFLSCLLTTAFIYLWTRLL

SMILES | displacement
O=C1NC(=O)N(c2ccccc2)C(=O)/C1=C\c1ccc(-c2ccc(F)cc2)o1 | 137%
CN1CCN(S(=O)(=O)c2ccc(Br)c3ccccc23)CC1 | -4.7%
CCCc1c(C)nc2ccc(Br)cc2c1SCC(=O)O | -3%
COc1cc(C(=O)N/C(=C/c2ccc(Br)cc2)C(=O)NC(C)C(=O)O)cc(OC)c1OC (stereo unspecified) | -5.8%
COc1ccccc1N1CCN(C(=O)c2ccc(CN(c3cc(Cl)ccc3C)S(=O)(=O)c3ccccc3)cc2)CC1 | -18.5%
Cc1cc(C)nc(N2C(=O)c3ccc(C(=O)O)cc3C2=O)n1 | -7.7%
COc1cc(C2/C(=C(/O)c3ccccc3)C(=O)C(=O)N2c2cccc(C)c2)ccc1O (stereo unspecified) | 2.3%
CCOC(=O)c1ccc(N=CC2=C(O)CC(c3ccccc3)CC2=O)cc1 (stereo unspecified) | -15.4%
Cc1sc(CO)c(Sc2ccccc2)c1C(=O)O | 9.1%
Cc1cc(OCc2nc(-c3ccccc3)no2)ccc1Br | -4.6%
CC1=NN(c2ccc(C(=O)O)cc2)C(=O)/C1=C\c1cccs1 | 14.2%
O=C1c2ccccc2C(=O)N1CCCCN(C(=O)Nc1ccc([N+](=O)[O-])cc1)c1ccc(Cl)cc1 | 15.9%
CC1=C(C(=O)OCCCc2ccccc2)C(c2ccccc2Br)CC(=O)N1 (stereo unspecified) | -9.2%
Cc1cc(C)cc(N2C(=O)NC(=O)/C(=C\c3ccc(Br)cc3)C2=O)c1 | 6.3%
COc1ccc(COC(=O)C2=C(C)NC3=C(C(=O)CC(C)(C)C3)C2c2ccc(C)o2)cc1 (stereo unspecified) | -1.8%
Cc1ccccc1OCCCn1ccnc1 | -7.2%
COc1ccc(Br)cc1/C=C/C(=O)Nc1nc2ccc(C)cc2s1 | -22.6%
CCOc1cc(/C=C2/SC(=S)NC2=O)ccc1OC(=O)c1ccco1 | 3.1%
Clc1cccc(OCCCCCN2CCOCC2)c1 | -2%
O=C(Nc1ccc2c(c1)OCO2)c1cc([N+](=O)[O-])ccc1Cl | -0.4%
CC(=O)C1=C(O)C(=O)N(CCCC(=O)O)C1c1ccc(Br)cc1 (stereo unspecified) | -11.5%
CCCc1[nH]n(-c2ccc([N+](=O)[O-])cc2)c(=O)c1C=NC1CC(C)(C)NC(C)(C)C1 | 0.1%
CC(=O)N1N=C2CC(C)(C)OCC2C1c1ccccc1 (stereo unspecified) | 12%

SMILES | displacement
CCOC(=O)C1CCN(C2CC(=O)N(c3ccc(Cl)cc3)C2=O)CC1 (stereo unspecified) | 1.4%
CC(NS(=O)(=O)c1ccc2ccccc2c1)c1ccccc1 (stereo unspecified) | -6%
CC1=CC(C)(C)Nc2ccc(OC(=O)COc3ccccc3Cl)cc21 | 40.4%
COc1ccc(CNC(=S)Nc2cccc(C(F)(F)F)c2)cc1 | -5.2%
O=C(COc1ccc(Cl)cc1Cl)Nc1ccc(F)c(Cl)c1 | 0.9%
Cc1ccccc1NC(=O)C(=O)NCCCOC(C)C | 3.4%
Cc1ccc(C(=O)/C=C/c2ccc3ncccc3c2)cc1 | 8.9%
CCN1CC2([N+](=O)[O-])C=C(C(N)=O)CC([N+](=O)[O-])(C1)C2 (stereo unspecified) | -8.4%
COc1ccc(/C=C2\C(=O)NC(=S)N(c3ccc(Br)cc3C)C2=O)cc1OC | 9.4%
C/C(=N/N1CCN(c2ccccc2)CC1)c1cccc([N+](=O)[O-])c1 | -5.3%
CC(O)(C#CCN1CCCCC1)c1ccccc1 (stereo unspecified) | -6.7%
O=[N+]([O-])c1ccc(-c2nnc(-c3ccc(Br)o3)o2)c(Cl)c1 | 4.9%
COc1cc(/C=C(\C#N)c2nn(CCO)c(N)c2C#N)ccc1OCc1ccc(Cl)cc1Cl | 43.4%
Cc1ccc(C23CC4CC(CC(C(=O)NCc5ccccc5)(C4)C2)C3)cc1 | -13.8%
Nc1ccc2[nH]nc3c2c1C(=O)c1ccccc1-3 | 104%
COc1ccccc1OCC(=O)Nc1c(C)cccc1C(C)C | -4.5%
CCN(CC)c1ccc(C(=O)Nc2cccc(F)c2)cc1 | 13.1%
Cn1c(C=Nc2ccccc2O)nc2ccccc21 | -2.3%
COc1cc2c(cc1OC)Cc1cc(OC)c(OC)cc1C(=O)C2 | 14.8%
Cc1nonc1-c1cn2cc(Cl)ccc2n1 | -9.1%
N#CSCCCOc1ccccc1F | -4.7%
COc1ccc(C(=O)/C=C/Nc2ccc(Cl)cc2[N+](=O)[O-])cc1OC | 11.8%
NC(CC(=O)OC1CCCCC1)C(=O)OC1CCCCC1 (stereo unspecified) | 74.3%

SMILES | displacement
N#Cc1c(Nc2ccccc2)ccn(CC(=O)c2ccccc2)c1=O | -9%
COCCCNc1ncnc2ccc(Br)cc12 | -7.3%
COC(=O)C1=NN(C(=O)c2cccc(Br)c2)C(O)(c2ccc(Cl)cc2)C1 (stereo unspecified) | 12.7%
O=C(CCN1C(=O)c2ccccc2C1=O)Nc1cccc(Cl)c1 | 6.1%
COc1ccc(C2=NC(=Cc3ccc(Br)cc3)C(=O)O2)cc1 | 22.5%
Nn1cnc2c(c1=O)C1(CCCC1)Cc1ccccc1-2 | 0.8%
Cc1ccc(C(C)C)c(OCCOc2ccc(Cl)cc2/C=N/n2cnnc2)c1 | -1.7%
COc1ccc(C2Nc3cccc4cccc(c34)N2)cc1O | 23.9%
COc1ccc2nc(NC(=O)c3cc4ccccc4o3)sc2c1 | 9.2%
COc1ccc(C(=O)NC(Oc2ccc(Cl)cc2)C(Cl)(Cl)Cl)cc1OC (stereo unspecified) | -4.1%
CC1CCc2c(sc(NC(=O)c3c(F)c(F)c(F)c(F)c3F)c2C#N)C1 (stereo unspecified) | 12.9%
CCCNC(=O)c1c(NC(=O)c2ccccc2F)sc2c1CCC(C)C2 (stereo unspecified) | 16.4%
O=C(c1ccco1)c1coc2ccc(Cl)cc2c1=O | 8.8%
O=C(CN(c1ccccc1)S(=O)(=O)c1ccccc1[N+](=O)[O-])N1CCCC1 | 7.3%
Clc1ccc(OCCCN2CCCCC2)cc1 | -10%
C/C(=N/NC(=O)c1ccccc1)C1CC1 | 18.4%
CC(C)(C)c1ccc(-c2nnc(-c3ccc4c(c3)OCO4)o2)cc1 | -9.2%
O=C(O)CCCCCN1C(=O)C(=O)/C(=C(/O)c2ccc([N+](=O)[O-])cc2)C1c1ccccc1F (stereo unspecified) | 18.3%
COc1ccc(NC(=O)C(=O)NCc2ccccn2)c(OC)c1 | 9.1%
Cc1ccc(N(CC(O)CN2CCCCC2)S(=O)(=O)c2ccc(C)cc2)cc1 (stereo unspecified) | -2.2%
CC(=O)OCCNC(=O)/C(=C\c1ccc(Br)cc1)NC(=O)c1ccc(Br)o1 | -5.6%
Cc1ccccc1/C=C1/SC(N)=NC1=O | 3.6%
CC(C)CC(NC(=O)c1ccccc1)C(=O)OCC(=O)Nc1cccc2ccccc12 (stereo unspecified) | -1.7%

SMILES | displacement
O=[N+]([O-])c1ccc(S(=O)(=O)N2CCN(c3ccccn3)CC2)cc1 | -0.6%
O=C(NN1C(=O)/C(=C/c2cccc(F)c2)SC1=S)c1ccncc1 | 15.5%
CN1CCN(C(=O)Nc2ccccc2)CC1 | -1.2%
O=C(Nc1ccccc1C(=O)Nc1ccncc1)c1ccccc1 | 8%
CSc1nc2ccc(NC(=O)CSc3nc4ccc([N+](=O)[O-])cc4s3)cc2s1 | 12.3%
COc1ccccc1NC(=O)COc1ccc(C)c(C)c1 | 9.9%
COc1ccc(CN2CCN(S(=O)(=O)c3ccc(Cl)cc3)CC2)cc1Br | -5%
Cc1ccccc1OCC(=O)N/N=C/c1cn(C)c2ccccc12 | 0.7%
Nc1nc2n(n1)C(c1ccccc1)C=C(c1ccccc1)N2 (stereo unspecified) | 13.6%
COc1ccc(C2CC(C(F)(F)F)n3nc(C(=O)Nc4cccc(C(C)O)c4)cc3N2)cc1 (stereo unspecified) | 4.5%
CN(C)c1nnc(-c2ccccc2)c(-c2ccccc2)n1 | -10.7%
COc1ccccc1N1CCN(C(=O)CN(c2ccc(C)cc2)S(=O)(=O)c2ccc(F)cc2)CC1 | -12.6%
O=C(O)C1C2CCC(C2)C1C(=O)Nc1nccs1 (stereo unspecified) | -0.4%
Cn1c(O)c(N=Nc2ccccn2)c2ccccc21 | 24.2%
CCC1=NN(C(=O)c2ccccc2Br)C(O)(c2ccncc2)C1 (stereo unspecified) | -26.2%
COc1ccc(OC)c(C=NNC(=O)Cn2nnc3ccccc32)c1 | -8.8%
O=C(CSCCNS(=O)(=O)c1ccccc1)Nc1ccccc1 | -4.9%
O=C(N/N=C/c1ccc(O)c([N+](=O)[O-])c1)c1cccnc1 | 3.9%
COc1cc(/C=C2\C(=O)NC(=O)N(c3cc(C)cc(C)c3)C2=O)cc(OC)c1O | 12.1%
CCN(CC)c1ccc(NC(=O)C2CCC(C)(C(=O)O)C2(C)C)cc1 (stereo unspecified) | -4.7%
CC(C)CCNC(=O)c1cc([N+](=O)[O-])ccc1Cl | 0.5%
CCOC(=O)c1ccc(NC(=O)CN(c2ccc(Br)cc2)S(C)(=O)=O)cc1 | -1.2%
COc1ccc(NC(=O)CN(c2ccc(Oc3ccccc3)cc2)S(C)(=O)=O)cc1OC | 12.7%

SMILES | displacement
O=C(CCCOc1ccc(Cl)cc1Cl)N1CCN(Cc2ccccc2)CC1 | -1.3%
COc1ccc(OC)c(/C=C(\C#N)c2ccc([N+](=O)[O-])cc2)c1 | 4%
Cc1ccc(C)c(N2C(=O)C3C(C2=O)C2(C)C(=O)C3(C)C(c3ccccc3)=C2c2ccccc2)c1 (stereo unspecified) | -16%
COc1ccc(/C=N/Nc2nc(-c3ccc(C)cc3)nc3ccccc23)cc1OC | 0.5%
Cc1ccccc1OCCn1cc(C=C2C(=O)NC(=S)NC2=O)c2ccccc21 | 6.1%
Cc1ccc(NS(=O)(=O)c2ccc(F)cc2)nc1 | -3%
Cc1cc(OCC(=O)Nc2ccc(Cl)c(C(F)(F)F)c2)ccc1Br | -8.4%
O=C(CCCOc1ccccc1)Nc1ccc(OCc2ccccc2)cc1 | 1.2%
Cc1ccc2nsnc2c1NC(=O)c1cc(Br)ccc1Cl | 1.4%
Brc1ccc(-c2nnc(SCCCCOc3ccccc3)o2)cc1 | -6.7%
Cc1cc(Nc2ccc(C)c(Cl)c2)n2ncnc2n1 | 10.6%
CC(C)c1ccc(NC(=O)C2CC2)cc1 | -3.3%
CC(=O)Nc1ccc(NC(=O)COc2ccccc2)cc1 | -3.3%
O=C(Nc1nccs1)c1ccc2c(c1)C(=O)N(CC1CCCO1)C2=O (stereo unspecified) | -0.3%
CN(C)CCOC(=O)CCN1C(=O)/C(=C/c2ccc(Cl)cc2Cl)SC1=S | 10.9%
Clc1ccc(-c2noc(-c3ccccc3Br)n2)cc1 | -0.6%
COc1ccc(C(NC(=O)c2ccccc2C)NC(=O)c2ccccc2C)cc1OC | 2.3%
O=C(NCCCNc1ccc([N+](=O)[O-])cc1)c1cc(F)c(F)cc1Cl | 5.6%
CC(=O)NC1=NC(=O)/C(=C/c2cc(C)n(-c3ccc(C(=O)O)cc3)c2C)S1 | -89.7%
